# This is one part of the list.
# B1: Epa3to1 (Candida glabrata) (protein)
# chain: MGSSHHHHHHSSGLVPRGSHMKRELSSQNPFGYPIGCSPQDVAIIPGLTMELYSYPIVSGTPPNCYDASYVDPEYPRTGYLKRKMVGKSTGVTGNLNYKYSVEKACMVKYGNLPAGYNYNEPLTVSNFTMILYGYFKAQTTGLHTFFVNADDLLYINFGAGNAFDCCKREDSKTKLGEYVAYDIWHVDSSKNKVSLFLEKDLYYPIRMFFNNREYDSSLDLSFSVNGATDQISDFSGYLYSVPDQPDTCPAHIGYDTTCR
# Columns and labels:
# Assay in all cases: glycan array binding signal (z-score within array); higher = stronger binding
# Conditions in all cases: glycan notation: IUPAC condensed, linker removed
# [1] = target: Neu5Ac(a2-3)Gal(b1-4)GlcNAc(b1-3)Gal(b1-4)GlcNAc(b1-3)Gal(b1-4)GlcNAc
# In short: (§1)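 Negative Z-scores can be read as non-binding. The Z-score is calculated within each array and then averaged across arrays of one protein sequence at different concentrations or buffers and across linkers. Arrays, 3228 in all, were curated from the Consortium for Functional Glycomics database and kept only where the protein sequence was available.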
# [2] = target: Neu5Ac(a2-3)Gal(b1-4)GlcNAc(b1-3)Gal(b1-4)GlcNAc(b1-3)Gal(b1-4)GlcNAc(b1-2)Man(a1-3)[Neu5Ac(a2-3)Gal(b1-4)GlcNAc(b1-3)Gal(b1-4)GlcNAc(b1-3)Gal(b1-4)GlcNAc(b1-2)Man(a1-6)]GalNAc
# In short: as §1
# [3] = target: Neu5Ac(a2-3)Gal(b1-4)GlcNAc(b1-3)Gal(b1-4)GlcNAc(b1-3)GalNAc
# In short: as §1
# [4] = target: Neu5Ac(a2-3)Gal(b1-4)GlcNAc(b1-3)Gal(b1-4)GlcNAc(b1-3)[Neu5Ac(a2-3)Gal(b1-4)GlcNAc(b1-3)Gal(b1-4)GlcNAc(b1-6)]GalNAc
# In short: as §1
# [5] = target: Neu5Ac(a2-3)Gal(b1-4)GlcNAc(b1-3)Gal(b1-4)GlcNAc(b1-6)[Gal(b1-3)]GalNAc
# In short: as §1
# [6] = target: Neu5Ac(a2-3)Gal(b1-4)GlcNAc(b1-3)Gal(b1-4)[Fuc(a1-3)]GlcNAc
# In short: as §1
# [7] = target: Neu5Ac(a2-3)Gal(b1-4)GlcNAc(b1-3)GalNAc
# In short: as §1
# [8] = target: Neu5Ac(a2-3)Gal(b1-4)GlcNAc(b1-3)[Neu5Ac(a2-3)Gal(b1-4)GlcNAc(b1-6)]GalNAc
# In short: as §1
# [9] = target: Neu5Ac(a2-3)Gal(b1-4)GlcNAc(b1-6)GalNAc
# In short: as §1
# [10] = target: Neu5Ac(a2-3)Gal(b1-4)GlcNAc(b1-6)[Gal(b1-3)]GalNAc
# In short: as §1
# [11] = target: Neu5Ac(a2-3)Gal(b1-4)GlcNAc(b1-6)[Neu5Ac(a2-3)Gal(b1-3)]GalNAc
# In short: as §1
# [12] = target: Neu5Ac(a2-3)Gal(b1-4)GlcNAc6S
# In short: as §1
# [13] = target: Neu5Ac(a2-3)Gal(b1-4)[Fuc(a1-3)]GlcNAc
# In short: as §1
# [14] = target: Neu5Ac(a2-3)Gal(b1-4)[Fuc(a1-3)]GlcNAc(b1-2)Man
# In short: as §1
# [15] = target: Neu5Ac(a2-3)Gal(b1-4)[Fuc(a1-3)]GlcNAc(b1-3)Gal
# In short: as §1
# [16] = target: Neu5Ac(a2-3)Gal(b1-4)[Fuc(a1-3)]GlcNAc(b1-3)Gal(b1-4)GlcNAc
# In short: as §1
# [17] = target: Neu5Ac(a2-3)Gal(b1-4)[Fuc(a1-3)]GlcNAc(b1-3)Gal(b1-4)[Fuc(a1-3)]GlcNAc(b1-3)Gal(b1-4)[Fuc(a1-3)]GlcNAc
# In short: as §1
# [18] = target: Neu5Ac(a2-3)Gal(b1-4)[Fuc(a1-3)]GlcNAc(b1-3)GalNAc
# In short: as §1
# [19] = target: Neu5Ac(a2-3)Gal(b1-4)[Fuc(a1-3)]GlcNAc(b1-6)[Gal(b1-3)]GalNAc
# In short: as §1
# [20] = target: Neu5Ac(a2-3)Gal(b1-4)[Fuc(a1-3)]GlcNAc(b1-6)[Neu5Ac(a2-3)Gal(b1-3)]GalNAc
# In short: as §1
# [21] = target: Neu5Ac(a2-3)Gal(b1-4)[Fuc(a1-3)]GlcNAc6S
# In short: as §1
# [22] = target: Neu5Ac(a2-3)Gal6S(b1-4)GlcNAc
# In short: as §1
# [23] = target: Neu5Ac(a2-3)Gal6S(b1-4)[Fuc(a1-3)]GlcNAc
# In short: as §1
# [24] = target: Neu5Ac(a2-3)GalNAc
# In short: as §1
# [25] = target: Neu5Ac(a2-3)GalNAc(b1-4)GlcNAc
# In short: as §1
# [26] = target: Neu5Ac(a2-3)[GalNAc(b1-4)]Gal(b1-4)Glc
# In short: as §1
# [27] = target: Neu5Ac(a2-3)[GalNAc(b1-4)]Gal(b1-4)GlcNAc
# In short: as §1
# [28] = target: Neu5Ac(a2-3)[GalNAc(b1-4)]Gal(b1-4)GlcNAc(b1-3)GalNAc
# In short: as §1
# [29] = target: Neu5Ac(a2-3)[Neu5Ac(a2-6)]GalNAc
# In short: as §1
# [30] = target: Neu5Ac(a2-6)Gal
# In short: as §1
# [31] = target: Neu5Ac(a2-6)Gal(b1-3)GlcNAc(b1-3)[Gal(b1-4)GlcNAc(b1-6)]Gal(b1-4)Glc
# In short: as §1
# [32] = target: Neu5Ac(a2-6)Gal(b1-4)Glc
# In short: as §1
# [33] = target: Neu5Ac(a2-6)Gal(b1-4)GlcNAc
# In short: as §1
# [34] = target: Neu5Ac(a2-6)Gal(b1-4)GlcNAc(b1-2)Man
# In short: as §1
# [35] = target: Neu5Ac(a2-6)Gal(b1-4)GlcNAc(b1-2)Man(a1-3)Man(b1-4)GlcNAc(b1-4)GlcNAc
# In short: as §1
# [36] = target: Neu5Ac(a2-6)Gal(b1-4)GlcNAc(b1-2)Man(a1-3)[Gal(b1-4)GlcNAc(b1-2)Man(a1-6)]Man(b1-4)GlcNAc(b1-4)GlcNAc
# In short: as §1
# [37] = target: Neu5Ac(a2-6)Gal(b1-4)GlcNAc(b1-2)Man(a1-3)[GlcNAc(b1-2)Man(a1-6)]Man(b1-4)GlcNAc(b1-4)GlcNAc
# In short: as §1
# [38] = target: Neu5Ac(a2-6)Gal(b1-4)GlcNAc(b1-2)Man(a1-3)[GlcNAc(b1-4)][Neu5Ac(a2-6)Gal(b1-4)GlcNAc(b1-2)Man(a1-6)]Man(b1-4)GlcNAc(b1-4)GlcNAc
# In short: as §1
binder,measurement,setting,value
B1,glycan array binding signal (z-score),[1],-0.391
same,glycan array binding signal (z-score),[2],0.158
same,glycan array binding signal (z-score),[3],0.164
same,glycan array binding signal (z-score),[4],-0.223
same,glycan array binding signal (z-score),[5],-0.181
same,glycan array binding signal (z-score),[6],-0.99
same,glycan array binding signal (z-score),[7],-0.273
same,glycan array binding signal (z-score),[8],0.192
same,glycan array binding signal (z-score),[9],-0.321
same,glycan array binding signal (z-score),[10],0.66
same,glycan array binding signal (z-score),[11],-0.382
same,glycan array binding signal (z-score),[12],-0.83
same,glycan array binding signal (z-score),[13],-0.596
same,glycan array binding signal (z-score),[14],-0.113
same,glycan array binding signal (z-score),[15],-0.134
same,glycan array binding signal (z-score),[16],-0.257
same,glycan array binding signal (z-score),[17],-1.17
same,glycan array binding signal (z-score),[18],0.21
same,glycan array binding signal (z-score),[19],-0.151
same,glycan array binding signal (z-score),[20],0.091
same,glycan array binding signal (z-score),[21],0.029
same,glycan array binding signal (z-score),[22],-0.262
same,glycan array binding signal (z-score),[23],-1.06
same,glycan array binding signal (z-score),[24],-0.62
same,glycan array binding signal (z-score),[25],-0.962
same,glycan array binding signal (z-score),[26],-0.679
same,glycan array binding signal (z-score),[27],-0.706
same,glycan array binding signal (z-score),[28],-0.334
same,glycan array binding signal (z-score),[29],-0.413
same,glycan array binding signal (z-score),[30],-0.784
same,glycan array binding signal (z-score),[31],-0.458
same,glycan array binding signal (z-score),[32],-0.18
same,glycan array binding signal (z-score),[33],-0.371
same,glycan array binding signal (z-score),[34],-0.272
same,glycan array binding signal (z-score),[35],0.455
same,glycan array binding signal (z-score),[36],-0.265
same,glycan array binding signal (z-score),[37],0.377
same,glycan array binding signal (z-score),[38],-0.342

# Source: the supplement of paper PMC8728848
